This series concerns ATP. Nature of the series: switch fluorescence ratio, 500 uM ATP over buffer (Cy3 cluster intensity, sum of 5 cycles each) (fold (ratio)); higher = stronger signal-on switching upon ATP binding; sequences stand for … in TCGTCGGCAGCGTCAGATGTGTATAAGAGACAGTTTTTTTTTTTTTTTTTTTTTTTTT…TC. As to conditions: aptamer strand: ATP DNA aptamer (quencher-CACCTGGGGGAGTATTGCGGAGGAAGG + anchor), 100 nM annealed; ATP concentration: 500 uM; one replicate. In a few lines: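 Switching-strand clusters labelled with Cy3 on a modified Illumina MiSeq flow-cell were annealed to 100 nM quencher-labelled ATP aptamer, imaged in selection buffer, and re-imaged after 15 min with 500 uM ATP at 22 °C. This was done over five cycles with NaOH stripping and re-annealing in between. The fluorescence ratio is summed target-cycle over summed buffer-cycle Cy3 intensity per cluster, averaged per switch-domain sequence, excluding clusters outside 100-1000 RFU.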

Values marked as one replicate rest on one cluster of the flow cell; about a third of the high ones do not repeat.
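Note: ATP exposure 15 min at 22 °C before imaging.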

With GTTTCCCGGG, the switch fluorescence ratio is 0.996.

Turning to CCTGATTAGG, the switch fluorescence ratio was determined as 0.988.

Turning to CCAAGACTGG, the switch fluorescence ratio was determined as 0.964.

Take CTCGTTCGCA: the switch fluorescence ratio came out at 1.64.

Turning to AAGGTGACGT, the switch fluorescence ratio is 1.03.

As for CAGTAAAGTA, the switch fluorescence ratio was found to be 1.05.

With GATAAGGGCC, the switch fluorescence ratio was found to be 1.

Take CCTTAATTG: the switch fluorescence ratio was determined as 1.01.

For the sequence TCCGCGACGA, the switch fluorescence ratio is 4.48.

Turning to GCGAGAGGTG, the switch fluorescence ratio was 1.12.

For ACACATACAT, the switch fluorescence ratio came to 1.26.

Consider AGCGGGAC, for which the switch fluorescence ratio was found to be 3.05.

Turning to TGATATAGAC, the switch fluorescence ratio came out at 1.04.

For the sequence AAAGGTGTAC, the switch fluorescence ratio is 1.11.

Consider TAGCGTCACG, for which the switch fluorescence ratio is 0.943.

Turning to TCTTGAACCT, the switch fluorescence ratio amounted to 1.81.

For the sequence AAAGCTTTTG, the switch fluorescence ratio amounted to 1.

Consider CCGAAAAGAG, for which the switch fluorescence ratio worked out at 1.1.

On to CTCATGGGAT, for which the switch fluorescence ratio amounted to 1.04.

For TAAGCTATGT, the switch fluorescence ratio is 0.961.

Consider ATCTGCCAGC, for which the switch fluorescence ratio was determined as 1.04.

For ATGGCGCAGA, the switch fluorescence ratio was 0.971.

As for ACTTGAGGCT, the switch fluorescence ratio worked out at 0.971.

On to CGAGATCAGA, for which the switch fluorescence ratio was 1.06.

With AATGTAGTAG, the switch fluorescence ratio stood at 0.99.

Turning to AGTGTAAA, the switch fluorescence ratio amounted to 0.967.

Take AAGTGTCTAC: the switch fluorescence ratio was 0.974.

For GCATGATAT, the switch fluorescence ratio is 0.995.

On to TTACGAATAC, for which the switch fluorescence ratio came to 2.22.

As to TTGACCAACG, the switch fluorescence ratio worked out at 1.15.

For the sequence CCCTTGAAGG, the switch fluorescence ratio amounted to 0.993.

With CTCGCGTTGG, the switch fluorescence ratio came to 0.994.

Consider CGGACGCGCA, for which the switch fluorescence ratio was found to be 1.79.

For the sequence TATTGTGTAG, the switch fluorescence ratio came out at 1.01.

As to TCCAAAACGG, the switch fluorescence ratio amounted to 1.07.

Turning to ACTCCATGTA, the switch fluorescence ratio was found to be 1.07.

Take TTTCCATGTC: the switch fluorescence ratio turned out to be 0.991.

GGACATTTCC: the switch fluorescence ratio amounted to 1.12.

Turning to ATCGGCGGAT, the switch fluorescence ratio came out at 0.964.

For the sequence GCTTACGGAA, the switch fluorescence ratio was determined as 1.21.

As to TTCGTGTTT, the switch fluorescence ratio was found to be 0.995.

On to AAAGGCACTC, for which the switch fluorescence ratio was 1.05.

Regarding GCGTACCGGG, the switch fluorescence ratio is 1.01.

GCTACCGGCT: the switch fluorescence ratio was 1.12.

For the sequence CATTCGTACT, the switch fluorescence ratio was 1.11.

With GGACGGGTCC, the switch fluorescence ratio worked out at 1.03.

On to AGGGGAGTCT, for which the switch fluorescence ratio is 1.

In the case of TAGCTATAAT, the switch fluorescence ratio was 1.02.

For GGGCCCCGGT, the switch fluorescence ratio is 1.04.

Turning to TCACTGGAGA, the switch fluorescence ratio stood at 1.

As for CTGTGGTTGC, the switch fluorescence ratio is 1.04.

Regarding AAAGGTGAGA, the switch fluorescence ratio came out at 1.08.

GATCTTTATG: the switch fluorescence ratio was found to be 0.956.

GCGAGGTTCA: the switch fluorescence ratio is 0.977.

Take TGCTCATAGT: the switch fluorescence ratio amounted to 1.03.

For the sequence TCCTACTAGA, the switch fluorescence ratio came out at 1.1.

As for GAGGCGCTC, the switch fluorescence ratio stood at 1.03.

For AAAAAGTTGC, the switch fluorescence ratio worked out at 0.993.

GGAGTCCAGA: the switch fluorescence ratio worked out at 0.998.

Take GTTGCGCTTG: the switch fluorescence ratio stood at 1.01.

On to GCGACGACCT, for which the switch fluorescence ratio was found to be 1.27.

Consider CTAGTAGGAG, for which the switch fluorescence ratio is 0.986.

Turning to GGTTTTCGTC, the switch fluorescence ratio turned out to be 1.

In the case of ATGAGCGCAT, the switch fluorescence ratio came to 1.11.

Turning to GCCGTTCCC, the switch fluorescence ratio was found to be 0.972.

ATGTATTGCT: the switch fluorescence ratio is 0.99.

AACTAATCTT: the switch fluorescence ratio was determined as 0.994.

As to CTCAGTAGTG, the switch fluorescence ratio was 1.04.

On to TTGAGTTAGA, for which the switch fluorescence ratio was determined as 0.985.

On to ATGCAGGGTA, for which the switch fluorescence ratio was 1.05.

For AAGTAATAGC, the switch fluorescence ratio worked out at 1.1.

Take TAAGACTTAC: the switch fluorescence ratio is 1.31.

Take AGGGTGACTG: the switch fluorescence ratio came to 1.09.

TGCCACAACA: the switch fluorescence ratio amounted to 1.02.

Regarding GACAGGTAAT, the switch fluorescence ratio came to 0.993.

As for GAGGTAATCG, the switch fluorescence ratio is 1.09.

For the sequence CATGAGTTA, the switch fluorescence ratio amounted to 1.03.

On to TAGTAACGTT, for which the switch fluorescence ratio came out at 0.992.

Take TGGTTATACG: the switch fluorescence ratio turned out to be 0.975.

For the sequence TTGACTATTA, the switch fluorescence ratio turned out to be 1.01.

As to TTGCGCGGTC, the switch fluorescence ratio came to 2.07.

Regarding TTGTCCTGGT, the switch fluorescence ratio came out at 0.931.

CGCCCGGTCG: the switch fluorescence ratio was determined as 1.02.

On to AGCTATGGAG, for which the switch fluorescence ratio came out at 1.01.

As for TGTAAACGAC, the switch fluorescence ratio was 0.984.

Turning to CAATCTATGT, the switch fluorescence ratio was found to be 0.973.

As for GAACCCGAGG, the switch fluorescence ratio was determined as 1.04.

On to CAGATGCTAA, for which the switch fluorescence ratio came to 1.02.

For the sequence GGTCTGAGGT, the switch fluorescence ratio amounted to 0.928.

With CGAGCTAGAT, the switch fluorescence ratio came out at 1.16.

With CGCTAGTGC, the switch fluorescence ratio was found to be 1.89.

With ATTGTATTAA, the switch fluorescence ratio came to 0.979.

GCAGAGTACG: the switch fluorescence ratio was determined as 0.991.

Take AGAGTATTG: the switch fluorescence ratio stood at 0.965.

GGCATATCTG: the switch fluorescence ratio stood at 0.976.

For the sequence AATGTGGGC, the switch fluorescence ratio was 1.03.

Regarding GGAGTAAAGC, the switch fluorescence ratio was found to be 1.09.

In the case of TGCATTTCTA, the switch fluorescence ratio amounted to 1.01.

As to ATGTTGTGGA, the switch fluorescence ratio amounted to 0.961.

In the case of AAAAGTGAAT, the switch fluorescence ratio is 0.962.

Take CGCTGACGTC: the switch fluorescence ratio was determined as 1.05.

AAGTGGGGCA: the switch fluorescence ratio amounted to 1.01.

Turning to TTAAGCCGAA, the switch fluorescence ratio is 1.03.

As to GCCTAGTAAG, the switch fluorescence ratio turned out to be 0.921.

For GCCTTTAAAG, the switch fluorescence ratio stood at 0.963.

With CTTTCTTCCC, the switch fluorescence ratio turned out to be 1.13.

On to TTTAGTCTTG, for which the switch fluorescence ratio turned out to be 0.936.

For ACATTGCAAA, the switch fluorescence ratio is 0.968.

Take TATAATCGC: the switch fluorescence ratio stood at 1.01.

As for ATCCACGG, the switch fluorescence ratio was 1.03.

With CGCAAAATAT, the switch fluorescence ratio was found to be 1.85.

Turning to GGGCCTAGTG, the switch fluorescence ratio worked out at 0.973.

Regarding TATAAACTT, the switch fluorescence ratio worked out at 1.03.

With TCACAAAGGC, the switch fluorescence ratio worked out at 1.14.

CGTTGTCTCT: the switch fluorescence ratio turned out to be 1.05.

Take GGTGAAGACG: the switch fluorescence ratio is 0.991.

Take ATTTATATTT: the switch fluorescence ratio worked out at 1.03.

Turning to TGGCCTTTGG, the switch fluorescence ratio was 0.978.

On to GGTAGGGCAT, for which the switch fluorescence ratio stood at 1.

For AAAGGTACTC, the switch fluorescence ratio was found to be 0.983.

The record behind these values is the supplement of paper PMC10126150.
